# In the BET-seq Pho4 binding data (Le et al. 2018):
# The list shows a part of the results. These are noisy estimates, calculated here from bound and input reads.
# Biological target: T1, Pho4 (S. cerevisiae) (UniProt P07270)
# T1 sequence: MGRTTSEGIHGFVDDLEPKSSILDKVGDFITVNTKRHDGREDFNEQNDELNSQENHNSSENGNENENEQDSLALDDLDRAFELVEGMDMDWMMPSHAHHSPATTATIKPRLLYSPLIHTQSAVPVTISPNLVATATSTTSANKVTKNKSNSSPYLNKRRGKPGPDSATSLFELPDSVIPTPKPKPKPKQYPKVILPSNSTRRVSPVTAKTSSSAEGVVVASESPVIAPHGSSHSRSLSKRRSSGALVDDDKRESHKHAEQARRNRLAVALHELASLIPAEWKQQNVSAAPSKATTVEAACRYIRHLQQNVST
# Assay: relative binding free energy (BET-seq); higher = weaker binding
# Settings: reference: library average
row,Sequence,relative binding free energy [kcal/mol]
1,AGAGGCACGTGCTTTT,-0.08
2,TACGGCACGTGTGTGG,0.01
3,TCAGTCACGTGGGTAT,0.05
4,AGTTGCACGTGGTCTG,-0.25
5,CAAAGCACGTGGGGGG,-0.28
6,GGGTGCACGTGTTCTA,-0.05
7,TTCGTCACGTGTCTTT,0.02
8,CTTGCCACGTGTGTAG,-0.05
9,TGGGTCACGTGCTGTT,0.13
10,TATATCACGTGAGGTC,0.47
11,TGGAGCACGTGGGGTG,-0.19
12,TTGTGCACGTGAGATC,0.29
13,TTGGTCACGTGAGACT,0.35
14,TTCGCCACGTGGGTGG,-0.3
15,AAAGGCACGTGTGGCT,-0.03
16,ATTTGCACGTGATATA,0.09
17,CTGATCACGTGTAGGG,0.18
18,ATTGGCACGTGGGCAG,-0.2
19,GGAGACACGTGTGCAT,0.06
20,CCGCTCACGTGGGGGT,0.07
21,ATTATCACGTGTTCGG,0.01
22,GAGTGCACGTGGATGT,-0.04
23,TTGCGCACGTGGAGGG,-0.24
24,GGATTCACGTGGTTTA,0.27
25,GATGGCACGTGGTAAG,-0.11

row,Sequence,relative binding free energy [kcal/mol]
1,TGGGCCACGTGAGGTA,-0.01
2,TTCAGCACGTGGTGTA,-0.15
3,TATGGCACGTGGGTTC,-0.19
4,GAGGGCACGTGACTGT,-0.03
5,GGGTTCACGTGTTTCG,0.3
6,TATAGCACGTGAGGAT,0.21
7,TTCGACACGTGTGGAT,0.16
8,AGTGGCACGTGTGAAG,0.11
9,GTAAGCACGTGAGGGG,0.17
10,TTATACACGTGTAGAA,0.18
11,ATATACACGTGATGTG,0.08
12,TCCGTCACGTGTTGGG,0.01
13,AAATTCACGTGATTAG,0.16
14,TTTGCCACGTGATGTG,-0.07
15,GGGCGCACGTGAGTCA,0.2
16,AGTAACACGTGTTATT,-0.12
17,ATACGCACGTGGTTTT,0
18,GGCTTCACGTGTATGG,0.2
19,GAATGCACGTGTATTG,-0.11
20,GGAGGCACGTGTGTTT,0.04
21,CGGGACACGTGTGTTG,0.05
22,TAACTCACGTGGGGTG,0
23,GAGCGCACGTGGTGGA,-0.2
24,ATATTCACGTGGGCTA,0.02
25,GTATGCACGTGGGCCT,-0.11

row,Sequence,relative binding free energy [kcal/mol]
1,GGCGACACGTGGAGGG,0.1
2,GTGTGCACGTGACGGA,0.06
3,CGGTGCACGTGGGGGT,-0.2
4,TTCAACACGTGTCGGG,0.28
5,GCGTTCACGTGCAGGG,0.19
6,CTGGTCACGTGGCAGT,-0.08
7,CCGTACACGTGTGGGA,0.17
8,GGTATCACGTGTTACG,0.07
9,CGGATCACGTGAGTTT,0.32
10,TTAGACACGTGCGGGT,0.01
11,GTTACCACGTGGCGGG,-0.1
12,TGCTACACGTGGGTTA,-0.05
13,ATTGGCACGTGTAAAT,0.16
14,GGTGCCACGTGCTGGT,-0.14
15,GCTGTCACGTGGTGGT,0.13
16,GTGGTCACGTGAAGAT,0.32
17,GGATTCACGTGAGTGA,0.24
18,GTGTTCACGTGTCATG,0.34
19,GTCCACACGTGTGGGG,0.16
20,TTGAACACGTGAGGGA,0.27
21,ATTGGCACGTGAAGAG,0.02
22,TTTGTCACGTGGCTGA,0.19
23,TGTGGCACGTGGGGGC,-0.17
24,TGGTACACGTGGACTT,0.1
25,TGGCGCACGTGGTGAG,-0.16

row,Sequence,relative binding free energy [kcal/mol]
1,TGGGGCACGTGGCAGA,-0.2
2,GGGTGCACGTGTGTGT,-0.01
3,TTAGGCACGTGGACTA,-0.08
4,TCGGTCACGTGTTTAT,0.19
5,AGGCGCACGTGCGTTG,0.02
6,ATTTACACGTGCTTAT,0.01
7,TGCGTCACGTGGCTGT,-0.07
8,TCGTTCACGTGGGCGG,0.1
9,GCGTGCACGTGTATTT,0.07
10,GGTCGCACGTGGGCGT,-0.14
11,TTAGACACGTGCGTAT,-0.01
12,TGTTACACGTGCGTGA,0.08
13,ATTGGCACGTGGGGCT,-0.13
14,CATTACACGTGGGTGT,-0.11
15,CATGGCACGTGGGGGC,-0.25
16,CAGGGCACGTGAGGTA,0.04
17,ACTGGCACGTGTATGT,-0.16
18,ATTCTCACGTGGGTGA,0.04
19,TTTTGCACGTGAGTTG,0.32
20,GTATGCACGTGGTTGC,-0.04
21,GGTGGCACGTGGAGCT,-0.01
22,TGATACACGTGTAGTG,-0.08
23,TTATGCACGTGTGCAA,0.12
24,GTTCGCACGTGTAGAG,0.2
25,TTTGACACGTGGAGGT,0.09

row,Sequence,relative binding free energy [kcal/mol]
1,GATATCACGTGGCTGT,0.11
2,GTATTCACGTGATGTC,0.24
3,ATAGGCACGTGGACTT,-0.04
4,GGGAGCACGTGGTTCG,0
5,CGGATCACGTGAGGGT,0.26
6,TCTAGCACGTGGATGT,-0.01
7,TTGGCCACGTGGGGAC,-0.19
8,TGGGCCACGTGTTGGA,-0.08
9,GTCGACACGTGGGTTG,-0.01
10,GTTGACACGTGAAGTT,0.16
11,AGGCGCACGTGTGTTA,-0.22
12,GTTCGCACGTGTGAAG,0.06
13,TTGGGCACGTGTGGAC,0.02
14,TCGGTCACGTGTTGGG,0.05
15,CGTGGCACGTGTTGCG,-0.09
16,CATGGCACGTGGGTTG,-0.28
17,TCAGTCACGTGTGTAT,0.14
18,CCTTTCACGTGTGGTT,0.18
19,AGGATCACGTGTTGCT,0.15
20,GGCGGCACGTGGCGTA,-0.16
21,TTCAGCACGTGGGAGT,-0.05
22,TGGGACACGTGCGCAG,-0.03
23,GTTGCCACGTGTTTAG,-0.01
24,CATGTCACGTGGGGTT,-0.09
25,ATCTGCACGTGATGAG,0.18

row,Sequence,relative binding free energy [kcal/mol]
1,TCTGGCACGTGGCGAG,-0.09
2,TTAAACACGTGGAAGG,0.03
3,TAATACACGTGTAAGG,0.07
4,GGGGACACGTGTTAAG,0.23
5,TGTGGCACGTGCTGTT,-0.21
6,AGTCGCACGTGGTCGT,-0.04
7,TGGGACACGTGCAATT,0.19
8,CAGAGCACGTGTGGCG,-0.03
9,TAAGTCACGTGCTGAT,0.13
10,TTTTTCACGTGTGGCC,0.41
11,GTGGACACGTGAATTG,0.31
12,CTTATCACGTGGTAAT,0.1
13,ATGTGCACGTGTGTGT,0.04
14,GGAGGCACGTGGATGA,-0.03
15,ATGAGCACGTGGGCAG,-0.26
16,ATCTTCACGTGTGTGT,0.16
17,GAGTGCACGTGGTGGA,0.03
18,GGTGGCACGTGTTGAG,0
19,ATTGTCACGTGGTGTG,-0.05
20,GAATTCACGTGATTTT,0.46
21,GGTGGCACGTGCGTTT,-0.02
